In one experiment the test system is HSkMC. The experiment in a line: cytotoxicity call (relative viability < 0.9). The following applies: 10 µM.
The test system of the next experiment is HepG2. The experiment in a line: cytotoxicity call (relative viability < 0.9). The following applies: 10 µM.
The next experiment deals with S. aureus RN4220. Kind of experiment: growth inhibition call (relative growth <= 0.2). The settings on record: 50 µM.

Molecules are shown by their SMILES. The list shows a part of the results.

Regarding `Cc1noc(C)c1NC(=O)Nc1ccc2c(c1)C(=O)N([C@H](C)CO)C[C@H](C)[C@H](CN(C)C(=O)Nc1ccc3c(c1)OCO3)OCCCC[C@@H](C)O2`, the cytotoxicity call with HSkMC and in the experiment on HepG2 was “inactive” in each case. The growth inhibition call with S. aureus RN4220 is “inactive”.
In the case of `C[C@H]1CN([C@@H](C)CO)C(=O)c2cc(NC(=O)C3CC3)ccc2O[C@H]1CN(C)Cc1ccc(C(=O)O)cc1`, the cytotoxicity call in the experiment on HSkMC and with HepG2 was “inactive” in each case. Also, the growth inhibition call in the experiment with S. aureus RN4220 is “inactive”.
With `COc1ccc([Si](C)(C)[C@H]2[C@H](CCO)O[C@@]3(C(=O)N(Cc4cccc(N(C=O)c5ccccc5)c4)c4ccccc43)[C@@H]2C)cc1`, the cytotoxicity call in the experiment with HSkMC is “inactive”. The cytotoxicity call with HepG2 is “active”. In addition, the growth inhibition call with S. aureus RN4220 is “inactive”.
Turning to `C=CCC[C@H](Cc1ccc(F)cc1)C(=O)OC[C@H](Cc1c[nH]c2ccccc12)NC(=O)[C@@H](CC=C)CC(=O)N[C@H](CO)Cc1ccccc1`, the cytotoxicity call in the experiment with HSkMC and in the experiment with HepG2 was “active” throughout. The growth inhibition call in the experiment on S. aureus RN4220 is “inactive”.
With `Cl.Clc1ccc(Cn2c(CN3CCCC3)nc3ccccc32)cc1`, the cytotoxicity call with HSkMC and with HepG2 was “inactive” throughout. In addition, the growth inhibition call in the experiment on S. aureus RN4220 was “inactive”.
For the compound `COC1(NC(=O)Cc2cccs2)C(=O)N2C(C(=O)[O-])=C(COC(N)=O)CSC21.[Na+]` (centres undefined), the cytotoxicity call in the experiment on HSkMC and with HepG2 was “inactive” throughout. For the same compound, the growth inhibition call in the experiment on S. aureus RN4220 was “active”.
For the compound `COc1ccc(NC(=O)Nc2ccc3c(c2)C(=O)N([C@H](C)CO)C[C@@H](C)[C@H](CN(C)S(=O)(=O)c2cccs2)OCCCC[C@H](C)O3)cc1`, the cytotoxicity call in the experiment with HSkMC and in the experiment with HepG2 was “inactive” in each case. Moreover, the growth inhibition call with S. aureus RN4220 was “inactive”.
In the case of `O=C(O)[C@]1(O)C[C@H](O)[C@@H](O)[C@@H](O)C1`, the cytotoxicity call with HSkMC and with HepG2 was “inactive” each time. Further, the growth inhibition call in the experiment with S. aureus RN4220 is “inactive”.
In the case of `Cc1noc(C)c1NC(=O)N(C)C[C@@H]1Oc2ncc(C#CCC(C)C)cc2C(=O)N([C@H](C)CO)C[C@H]1C`, the cytotoxicity call with HSkMC and in the experiment on HepG2 was “inactive” each time. In the experiment with S. aureus RN4220, the growth inhibition call is “inactive”.
For `C[C@@H]1CCCCO[C@@H](CN(C)CC2CCCCC2)[C@@H](C)CN([C@H](C)CO)C(=O)c2cc(NC(=O)NC3CCCCC3)ccc2O1`, the cytotoxicity call in the experiment with HSkMC and with HepG2 was “inactive” in each case. In the experiment with S. aureus RN4220, the growth inhibition call is “inactive”.
With `CC(=O)N(C)C[C@H]1Oc2cc(C#CCN(C)C)ccc2S(=O)(=O)N([C@H](C)CO)C[C@@H]1C`, the cytotoxicity call in the experiment with HSkMC and in the experiment on HepG2 was “inactive” each time. Besides, the growth inhibition call with S. aureus RN4220 is “inactive”.
Regarding `CCCCCCCCCCCCC(C(=O)O)C(C)C(=O)O` (centres undefined), the cytotoxicity call in the experiment on HSkMC and with HepG2 was “inactive” in each case. Moreover, in the experiment with S. aureus RN4220, the growth inhibition call is “inactive”.
Regarding `COc1ccc(NC(=O)Nc2ccc3c(c2)C(=O)N([C@H](C)CO)C[C@@H](C)[C@H](CN(C)S(=O)(=O)c2ccc(C)cc2)OCCCC[C@@H](C)O3)cc1`, the cytotoxicity call in the experiment with HSkMC and in the experiment on HepG2 was “inactive” in each case. Besides, the growth inhibition call in the experiment with S. aureus RN4220 is “inactive”.
On to `O=C(O)c1ccccc1OP(=O)(O)O`, for which the cytotoxicity call in the experiment on HSkMC and with HepG2 was “inactive” in each case. Besides, the growth inhibition call in the experiment with S. aureus RN4220 was “inactive”.
Regarding `COCC(=O)Nc1ccc2c(c1)OC[C@@H](C)N(C(=O)Cc1ccccn1)C[C@@H](C)[C@H](OC)CN(C)C2=O`, the cytotoxicity call in the experiment with HSkMC and in the experiment with HepG2 was “inactive” throughout. Besides, the growth inhibition call with S. aureus RN4220 was “inactive”.
`CO[C@@H]1CN(C)C(=O)c2cc(NC(=O)Nc3ccccc3F)ccc2OC[C@H](C)N(Cc2ccccc2C(=O)O)C[C@@H]1C`: the cytotoxicity call with HSkMC and in the experiment with HepG2 was “inactive” throughout. Moreover, the growth inhibition call in the experiment on S. aureus RN4220 was “inactive”.
Regarding `CC(C)CN1CCN[C@@H](C)C1=O`, the cytotoxicity call in the experiment with HSkMC and in the experiment on HepG2 was “inactive” in each case. For the same compound, the growth inhibition call in the experiment on S. aureus RN4220 is “inactive”.
Consider `C[C@H](CO)N1C[C@H](C)[C@@H](CN(C)C(=O)C2CCCCC2)Oc2cc(C#C[C@@H](C)O)ccc2S1(=O)=O`, for which the cytotoxicity call with HSkMC and in the experiment on HepG2 was “inactive” each time. Further, the growth inhibition call in the experiment on S. aureus RN4220 is “inactive”.
Regarding `Cc1ccc(S(=O)(=O)N(C)C[C@H]2Oc3c(NC(=O)C4CC4)cccc3C(=O)N([C@H](C)CO)C[C@@H]2C)cc1`, the cytotoxicity call in the experiment on HSkMC and with HepG2 was “inactive” each time. In the experiment on S. aureus RN4220, the growth inhibition call is “inactive”.
For the compound `CO[C@@H]1CN(C)C(=O)c2cc(NC(=O)Nc3ccccc3F)ccc2OC[C@H](C)N(CCC(F)(F)F)C[C@H]1C`, the cytotoxicity call in the experiment on HSkMC and in the experiment with HepG2 was “inactive” throughout. Moreover, the growth inhibition call in the experiment on S. aureus RN4220 is “inactive”.
As to `C[C@@H]1CCCCO[C@H](CN(C)C(=O)Nc2cccc3ccccc23)[C@@H](C)CN([C@@H](C)CO)C(=O)c2cc(NC(=O)c3ccccc3)ccc2O1`, the cytotoxicity call with HSkMC and in the experiment with HepG2 was “inactive” each time. In the experiment with S. aureus RN4220, the growth inhibition call is “inactive”.
For `C[C@@H]1CN([C@@H](C)CO)C(=O)Cc2cc(NC(=O)Cc3cn(C)c4ccccc34)ccc2O[C@@H]1CN(C)Cc1ccc(Cl)c(Cl)c1`, the cytotoxicity call in the experiment with HSkMC and with HepG2 was “inactive” in each case. For the same compound, the growth inhibition call with S. aureus RN4220 was “inactive”.
`CC(C)(C(=O)O)c1ccc(C(O)CCCN2CCC(C(O)(c3ccccc3)c3ccccc3)CC2)cc1.Cl` (centres undefined): the cytotoxicity call in the experiment on HSkMC and in the experiment on HepG2 was “inactive” in each case. The growth inhibition call in the experiment with S. aureus RN4220 is “inactive”.
`CN1C(=O)c2cc(NC(=O)c3cnccn3)ccc2OC[C@@H]2O[C@H](CC(=O)N[C@@H]3CCN(Cc4ccccc4)C3)CC[C@@H]21`: the cytotoxicity call in the experiment on HSkMC and in the experiment on HepG2 was “inactive” in each case. In addition, the growth inhibition call with S. aureus RN4220 is “inactive”.
Consider `COc1ccc(NC(=O)Nc2ccc3c(c2)C(=O)N([C@H](C)CO)C[C@H](C)[C@H](CN(C)Cc2ccc(Cl)c(Cl)c2)OCCCC[C@H](C)O3)cc1`, for which, in the experiment with HSkMC, the cytotoxicity call is “active”. The cytotoxicity call with HepG2 was “inactive”. In the experiment on S. aureus RN4220, the growth inhibition call was “inactive”.
Take `NCC[C@H]1CC[C@@H](NC(=O)NC2CCCCC2)[C@H](CO)O1`: the cytotoxicity call in the experiment on HSkMC and with HepG2 was “inactive” throughout. In addition, the growth inhibition call in the experiment with S. aureus RN4220 was “inactive”.
Consider `CC(C)NC(=O)Nc1ccc2c(c1)CC(=O)N([C@@H](C)CO)C[C@@H](C)[C@@H](CN(C)Cc1ccc3c(c1)OCO3)O2`, for which the cytotoxicity call in the experiment on HSkMC (human skeletal muscle cells) and with HepG2 was “inactive” throughout. Further, the growth inhibition call in the experiment on S. aureus RN4220 was “inactive”.
As for `C[C@@H]1CN([C@@H](C)CO)C(=O)c2cc(NC(=O)Nc3ccc(C(F)(F)F)cc3)ccc2O[C@@H](C)CCCCO[C@@H]1CN(C)C(=O)NC1CCCCC1`, the cytotoxicity call with HSkMC and in the experiment with HepG2 was “inactive” in each case. The growth inhibition call with S. aureus RN4220 is “inactive”.

These data come from the antibiotic and cytotoxicity screens of Wong et al. (2023).
